SMILES strings stand for the structures. In all, about 13,000 compounds were measured (“IFI”: median about 4, highest 2% from about 17 on). This is one part of the list.

IFI data for 55 molecules are collected here from ChEMBL document CHEMBL1157539, “Thousands of chemical starting points for antimalarial lead identification” (Nature, 2010).

The assay can be described thus: GSK_TCMDC: Inhibition Frequency Index (IFI). The number of non-kinase HTS assays where a compound showed > 50 % inhibition, expressed as a percentage of the number of such assays in which the compound was tested (-0 is zero). Format: functional.
In the case of `CC(C)Cc1cn(-c2nc(-c3nc4ccccc4[nH]3)cs2)c2ccncc12`, the IFI was determined as 4.94%.
Under `Cc1ccc(CN2CCN(Cc3cccc(NC(=O)c4cccs4)c3)CC2)cc1C` stands 3.1%.
The result for `COc1ccc(Nc2nc(NN=Cc3cc(Br)c(O)cc3O)nc(Nc3ccc([N+](=O)[O-])cc3)n2)cc1` reads 7.91%; that for `CC(C)(C)Oc1ccc(NC(=O)c2ccccc2O)cc1`, 0.74%.
`CN(C)c1nc2cc(-n3cnc4cc(-c5ccc(Cl)cc5)sc4c3=O)ccc2n1CCCN1CCCCC1` yielded an IFI of 13.2%.
`CCN(CC)CCNC(=O)c1ccc(NC(=O)c2cc3c(C)nn(-c4ccc(Cl)cc4)c3s2)cc1` gave an IFI of 6.38%.
The result for `C#CCN(Cc1ccc2[nH]c(N)nc(=O)c2c1)c1ccc(C(=O)N[C@@H](CCC(=O)O)C(=O)O)cc1` reads 3.65%; that for `Cc1cccc2nc(-c3cccc(-c4ccc(NC(=O)COc5ccccc5C(N)=O)cc4)c3)[nH]c12`, 4.39%.
Under `CC(C)CN(C)c1ncnc2c1nc(-c1cncc(C#N)c1)n2CCNCc1ccccc1` stands 0.95%; under `CCCCCCCNc1cc(C)nc2ccc(OC)cc12`, 7.3%; under `COc1cc(-c2nc(C(C)(C)CN)[nH]c2-c2ccncc2)ccc1Br`, 2.17%.
`CC[C@H]1CN(Cc2ccccc2Br)CC[C@H]1CCCc1ccnc2ccc(O)cc12` had an IFI of 7.04%.
The result for `O=C(c1cccc(Cl)c1)N1CCN(c2ccc([N+](=O)[O-])c(NC3CC3)c2)CC1` reads 2.9%; that for `c1ccc(-n2ncc(CNCc3ccc(-c4ccc(-c5nc6ccccc6[nH]5)s4)cc3)n2)cc1`, 9.68%; that for `CC(=O)Nc1ccc(CN2CCc3ccc(NS(=O)(=O)c4ccc(-c5cccc(C(F)(F)F)c5)cc4)cc3CC2)s1`, 7.14%.
Turning to `C[C@@H]([C@@H](CCCc1ccc(Cl)cc1)C(=O)N[C@H](C(=O)Nc1cccnc1)C(C)(C)C)N(O)C=O`, the IFI turned out to be 1.48%.
The result for `O=C(Nc1ccccc1)Nc1ccc(-c2cccc(-c3nc4cc(C(F)(F)F)ccc4[nH]3)c2)cc1` reads 7%; that for `COCCNCc1ccc(-c2ccc3c(Nc4ccc(F)cc4Cl)ccnc3c2)o1`, 11.6%.
For `COc1ccc(NC(=O)N2CCc3ccc(OCCN(C(C)C)C(C)C)cc32)cc1C(F)(F)F`, the IFI is 1.46%.
The result for `FC(F)(F)c1ccc2[nH]c(-c3ccc(-c4ccc(CNCc5ccccc5)cc4)cc3)nc2c1` reads 14.4%; that for `COc1cccc(NC(=O)NC2CCN(c3ccnc(Nc4cc(OC)c(OC)c(OC)c4)n3)C2)c1` (stereo not given), 6.06%.
The result for `COc1cc(CN2CCC(NC(=O)[C@H](Cc3ccccc3)NC(=O)Nc3ccc(Oc4ccccc4)cc3)C2)ccc1O` (stereo not given in full) reads 3.82%; that for `Cc1noc(C)c1-c1cccc(CNCc2cccc(-c3ccc(-c4nc5cccc(C)c5[nH]4)s3)c2)c1`, 4.72%.
Under `Cc1cccc2nc(-c3cccc(-c4ccc(NC(=O)c5cccnc5)cc4)c3)[nH]c12` stands 7.27%.
As to `Cc1cc(N[C@@H](CC(C)C)C(=O)NCCOc2ccccc2)nc(Nc2ccccc2)n1`, the IFI is 4.65%.
In turn, `Cc1nc2nc(N)nc(N)c2c(C)c1Cc1cccs1` had an IFI of 1.46%.
On to `Cc1ccc2c(c1)C1(CC(=O)N(CCc3scnc3C)C1=O)C(=O)N2Cc1ccccc1` (stereo not given), for which the IFI amounted to 0.83%.
The result for `OC1CCC(Nc2ccc3ncc(-c4ccc5ccccc5c4)n3n2)CC1` (stereo not given) reads 5.97%; that for `NCc1ccc(-c2cccc(CNC3CCN(Cc4ccccc4)CC3)c2)cc1`, 3.6%.
The molecule `COc1cc(Nc2ncc3c(C)nc(-c4cccc(Nc5ccc(CN6CCS(=O)(=O)CC6)cc5)c4)n3n2)cc(OC)c1OC` came in with an IFI of 4.9%.
The result for `O=C(N/C(=C/c1cccc([N+](=O)[O-])c1)c1nc2ccccc2[nH]1)c1cccc(Br)c1` reads 0.72%; that for `COc1ccc2c(CNCCCCCCNCc3c(OC)ccc4cc(OC)ccc34)c(OC)ccc2c1`, 7.38%; that for `CN(CCCCNC(=O)c1ccc(-c2ccccc2)cc1)C1CCc2c(O)cccc2C1` (stereo not given), 9.56%.
`Cc1noc(-c2ccc3c(c2)CCN(CCC2CCC(NC(=O)/C=C/c4cccc(Cl)c4)CC2)CC3)n1` (stereo not given) came in with an IFI of 2.13%.
The result for `CCOc1ccc2ccccc2c1C(=O)Nc1cc(C)nn1-c1nc(C)cc(=O)[nH]1` reads 13%; that for `COc1ccc(CCNC(=O)c2cc3c(=O)n4cccc(C)c4nc3n(C)c2=N)cc1`, 1.67%; that for `O=C(NCC1CCC(C(=O)NCc2cccc3ccccc23)CC1)c1ccc(O)c(-c2ccc(Cl)c(Cl)c2)c1` (stereo not given), 0.76%.
The result for `COc1cc(NC(=O)c2cc([N+](=O)[O-])ccc2NC(=O)CNC2CCCCC2C)cc(OC)c1` (stereo not given) reads 3.7%.
Under `O=C(/C=C/c1ccc(Cl)cc1)NCCCCCN1CCCN(C(=O)Nc2ccc(Cl)c(C(F)(F)F)c2)CC1` stands 14.3%; under `COc1ccc(-c2cccc(NC(=O)c3cccc(Cl)c3)c2)cc1CN1CCC(O)CC1`, 4.95%.
For the molecule `CC[C@H](C)CNC(=O)c1cncc(-c2ccc(CNCC3CNCCCO3)cc2)c1` (stereo not given in full), the IFI is 0%.
The result for `COc1cccc(C2CCCN(CCCCNC(=O)c3ccc(NC(=O)c4ccc(Cl)cc4)cc3)C2)c1` (stereo not given) reads 6.36%; that for `O=C(Nc1ccc2c(c1)CCN(C1CCC1)CC2)c1ccc(-c2cn3ccccc3n2)cc1`, 2.86%.
For `COc1c(C2CCN(CCN3CCC(CNC(=O)c4ccc(-c5ccc(C#N)cc5)cc4)CC3)CC2)ccc2c1CCCC2`, the IFI is 16.2%.
The result for `CCCN(CCC)C(=O)c1cc(C(=O)N[C@@H](Cc2ccccc2)[C@H](O)CNCc2cccc(C(F)(F)F)c2)cc(N2CCCCS2(=O)=O)c1` reads 2.19%; that for `CC(C)n1cc(CN2CCCC(C(=O)Nc3cccc(-c4cc5ccccc5[nH]4)c3)C2)cn1` (stereo not given), 9.3%; that for `COc1ccc(NC(=O)/C=C/c2cc(Br)ccc2F)cc1OCCN(C(C)C)C(C)C`, 2.34%.
The molecule `Oc1ccc2ccccc2c1CNC1CCCCCC1` displayed an IFI of 1.49%.
Molecule `O=C(Nc1ccc(Cl)c(Cl)c1)Nc1ccc2nccc(N3CCNCC3)c2c1` yielded an IFI of 8.21%.
The result for `c1ccc(CN2CCC(NCc3ccccc3-c3ccc(CNC4CCCC4)cc3)CC2)cc1` reads 5.84%; that for `CC(=O)Nc1cccc(-c2cn(-c3ccc(OCc4cccc(F)c4)c(Cl)c3)c3ncncc23)c1`, 1.42%.
Under `Cc1nc(-c2cccc(C(=O)N(Cc3cncn3Cc3cccc(C(F)(F)F)c3)CC3CC3)c2)cs1` stands 9.21%.
The result for `c1cc(CNCCc2ccncc2)cc(-c2ccc(-c3nc4ccccc4[nH]3)cc2)c1` reads 9.9%; that for `CCOCCCn1c(=N)c(C(=O)NCc2ccc(F)cc2)cc2c(=O)n3cccc(C)c3nc21`, 2.17%.
On to `CC(NC(=O)c1ccc(O)c(-c2ccc(Cl)c(Cl)c2)c1)C(=O)NCCN1CCCCC1` (stereo not given), for which the IFI amounted to 1.48%.
